Test results reported in the BET-seq Pho4 binding data (Le et al. 2018).
This is one part of the list. Values were computed here from the reads of four pooled replicates and scatter widely.

Each sequence was assayed against T1, Pho4 (S. cerevisiae) (UniProt P07270) (assay: relative binding free energy (BET-seq); higher = weaker binding). Details: reference: library average.
T1 sequence: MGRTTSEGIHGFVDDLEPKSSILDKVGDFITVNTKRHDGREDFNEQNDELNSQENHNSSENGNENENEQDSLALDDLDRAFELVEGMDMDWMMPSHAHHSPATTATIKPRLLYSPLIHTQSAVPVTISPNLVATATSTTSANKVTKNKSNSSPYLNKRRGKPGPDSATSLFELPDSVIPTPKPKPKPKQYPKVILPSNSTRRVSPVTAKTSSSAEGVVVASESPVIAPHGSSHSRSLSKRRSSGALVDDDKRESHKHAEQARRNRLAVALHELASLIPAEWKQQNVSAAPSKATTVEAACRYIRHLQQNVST
In the case of TTTAACACGTGACTGT, the “relative binding free energy” value is reported as 0.2 kcal/mol.
With ATGTGCACGTGTAGTA the “relative binding free energy” value was 0.07 kcal/mol.
TTGGGCACGTGCGGCT was tested, and the “relative binding free energy” value was -0.2 kcal/mol.
In the case of AGGAACACGTGGGTCT, the “relative binding free energy” value is reported as -0.09 kcal/mol.
With AGTGGCACGTGTCGCG the “relative binding free energy” value was -0.19 kcal/mol.
TATGTCACGTGAAGAA was tested, and the “relative binding free energy” value was 0.23 kcal/mol.
TTTGTCACGTGAAGTG was tested, and the “relative binding free energy” value was 0.29 kcal/mol.
For ATGTTCACGTGAGGAA, the “relative binding free energy” value was 0.39 kcal/mol.
GTGTTCACGTGTTCTC was tested, and the “relative binding free energy” value was 0.3 kcal/mol.
GTAGCCACGTGATTTA was tested, and the “relative binding free energy” value was 0.25 kcal/mol.
For TTTAGCACGTGTATAG, the “relative binding free energy” value was -0.13 kcal/mol.
With GTGAGCACGTGGATTG the “relative binding free energy” value was -0.04 kcal/mol.
With GGTGACACGTGTGTGA the “relative binding free energy” value was 0.06 kcal/mol.
With ATACTCACGTGAGGGT the “relative binding free energy” value was 0.35 kcal/mol.
For TTTATCACGTGTGGAT, the “relative binding free energy” value was 0.19 kcal/mol.
TTAGGCACGTGTATCT was tested, and the “relative binding free energy” value was -0.11 kcal/mol.
TCGTGCACGTGGGGGC was tested, and the “relative binding free energy” value was -0.2 kcal/mol.
In the case of GGCGGCACGTGTGGGG, the “relative binding free energy” value is reported as 0.01 kcal/mol.
For GTGGGCACGTGTAGAT, the “relative binding free energy” value was 0.3 kcal/mol.
ATAATCACGTGCGGGT was tested, and the “relative binding free energy” value was 0.09 kcal/mol.
CATGTCACGTGGGGAA was tested, and the “relative binding free energy” value was 0.09 kcal/mol.
With CATGGCACGTGAATGG the “relative binding free energy” value was 0.21 kcal/mol.
For TAGATCACGTGGAGGG, the “relative binding free energy” value was 0.26 kcal/mol.
In the case of AAGAGCACGTGTCGGG, the “relative binding free energy” value is reported as -0.05 kcal/mol.
AGATACACGTGGGAGA was tested, and the “relative binding free energy” value was 0.01 kcal/mol.
GTGTTCACGTGTGTAT was tested, and the “relative binding free energy” value was 0.27 kcal/mol.
TGTGACACGTGTCTGA was tested, and the “relative binding free energy” value was 0 kcal/mol.
With ATTTGCACGTGATGGC the “relative binding free energy” value was 0.21 kcal/mol.
With TGAAACACGTGGGGAG the “relative binding free energy” value was -0.03 kcal/mol.
With GCGTACACGTGAGGGG the “relative binding free energy” value was 0.24 kcal/mol.
With GTGTACACGTGGTAGC the “relative binding free energy” value was -0.06 kcal/mol.
With AATGGCACGTGGAGCG the “relative binding free energy” value was 0.05 kcal/mol.
TTATTCACGTGTGTGG was tested, and the “relative binding free energy” value was 0.3 kcal/mol.
For GGAGTCACGTGTGTTG, the “relative binding free energy” value was 0.29 kcal/mol.
TAGTCCACGTGATTTT was tested, and the “relative binding free energy” value was 0.1 kcal/mol.
In the case of TCGGTCACGTGTTTTC, the “relative binding free energy” value is reported as 0.24 kcal/mol.
GCTTACACGTGTGTTT was tested, and the “relative binding free energy” value was 0.2 kcal/mol.
With GTGCTCACGTGAGTGG the “relative binding free energy” value was 0.35 kcal/mol.
For TATGTCACGTGCAAGT, the “relative binding free energy” value was 0.16 kcal/mol.
GTAGCCACGTGGTGAG was tested, and the “relative binding free energy” value was -0.03 kcal/mol.
For CTTGGCACGTGAAATT, the “relative binding free energy” value was 0.2 kcal/mol.
With TAAATCACGTGGTCGG the “relative binding free energy” value was -0.07 kcal/mol.
With TTATACACGTGATTGT the “relative binding free energy” value was 0.11 kcal/mol.
For ACCGACACGTGTGGGG, the “relative binding free energy” value was 0.09 kcal/mol.
TTAGCCACGTGGCGGG was tested, and the “relative binding free energy” value was -0.2 kcal/mol.
With AGGGTCACGTGATAGC the “relative binding free energy” value was 0.27 kcal/mol.
For TCGATCACGTGTGATA, the “relative binding free energy” value was 0.3 kcal/mol.
In the case of GGGAGCACGTGGACAG, the “relative binding free energy” value is reported as -0.12 kcal/mol.
For AACGACACGTGTTGTG, the “relative binding free energy” value was 0.05 kcal/mol.
In the case of AGTTTCACGTGGCGCA, the “relative binding free energy” value is reported as 0.27 kcal/mol.
GCGTGCACGTGACGGG was tested, and the “relative binding free energy” value was 0.09 kcal/mol.
With TTACGCACGTGGTTTA the “relative binding free energy” value was -0.19 kcal/mol.
With GCTGGCACGTGTAGTT the “relative binding free energy” value was 0.04 kcal/mol.
GTCTTCACGTGGTATG was tested, and the “relative binding free energy” value was 0.11 kcal/mol.
In the case of GTAATCACGTGGCAGG, the “relative binding free energy” value is reported as 0.23 kcal/mol.
TGTGTCACGTGATACT was tested, and the “relative binding free energy” value was 0.12 kcal/mol.
With TGAGCCACGTGTAGGT the “relative binding free energy” value was -0.08 kcal/mol.
In the case of TAGTGCACGTGAATCA, the “relative binding free energy” value is reported as 0.48 kcal/mol.
AAATACACGTGGCGTT was tested, and the “relative binding free energy” value was 0.1 kcal/mol.
With TTAATCACGTGAGCGG the “relative binding free energy” value was 0.35 kcal/mol.
GGTATCACGTGGGTGG was tested, and the “relative binding free energy” value was 0.03 kcal/mol.
For GGAATCACGTGGGCTG, the “relative binding free energy” value was -0.12 kcal/mol.
CGGGGCACGTGAGCTG was tested, and the “relative binding free energy” value was -0.05 kcal/mol.
For TGTTGCACGTGAACAG, the “relative binding free energy” value was 0.15 kcal/mol.
With AGGGGCACGTGAGCTT the “relative binding free energy” value was 0.02 kcal/mol.
With GTTAACACGTGGGTTC the “relative binding free energy” value was -0.08 kcal/mol.
For TGGTACACGTGTACTT, the “relative binding free energy” value was 0.16 kcal/mol.
TTTAGCACGTGTCGTG was tested, and the “relative binding free energy” value was -0.15 kcal/mol.
For GTATTCACGTGCTTGA, the “relative binding free energy” value was 0.29 kcal/mol.
With GGAAACACGTGGTGTA the “relative binding free energy” value was -0.09 kcal/mol.
With GGAAGCACGTGGAAGG the “relative binding free energy” value was -0.03 kcal/mol.
For TATTACACGTGGTGGC, the “relative binding free energy” value was 0.11 kcal/mol.
With TTCTACACGTGCTTGT the “relative binding free energy” value was 0.07 kcal/mol.
CGGTGCACGTGCGGTA was tested, and the “relative binding free energy” value was -0.04 kcal/mol.
In the case of GTGGGCACGTGGGTGC, the “relative binding free energy” value is reported as -0.2 kcal/mol.
CGTTACACGTGTAGTT was tested, and the “relative binding free energy” value was 0.15 kcal/mol.
With TAGAGCACGTGGGTGC the “relative binding free energy” value was -0.27 kcal/mol.
For TTTTCCACGTGGTTAT, the “relative binding free energy” value was -0.02 kcal/mol.
With CTTGGCACGTGTGCTT the “relative binding free energy” value was -0.14 kcal/mol.
In the case of CGTAGCACGTGTGGCG, the “relative binding free energy” value is reported as 0 kcal/mol.
For GTGAGCACGTGGGGGG, the “relative binding free energy” value was -0.16 kcal/mol.
TCGGACACGTGTGGGA was tested, and the “relative binding free energy” value was 0.03 kcal/mol.
In the case of TGGTTCACGTGCAGTG, the “relative binding free energy” value is reported as 0.31 kcal/mol.
With TTTATCACGTGGCTGC the “relative binding free energy” value was 0.22 kcal/mol.
For AATAACACGTGGTAGG, the “relative binding free energy” value was -0.03 kcal/mol.
With AGGCGCACGTGTGTAG the “relative binding free energy” value was -0.1 kcal/mol.
With AGCTGCACGTGAGGGG the “relative binding free energy” value was 0.2 kcal/mol.
In the case of TTAGGCACGTGAGAGC, the “relative binding free energy” value is reported as 0.16 kcal/mol.
For GAGGACACGTGTATTT, the “relative binding free energy” value was 0.16 kcal/mol.
GGGGCCACGTGGGGTT was tested, and the “relative binding free energy” value was -0.19 kcal/mol.
For TGTAACACGTGTTTTG, the “relative binding free energy” value was 0.04 kcal/mol.
In the case of TGGGGCACGTGCGGGT, the “relative binding free energy” value is reported as -0.17 kcal/mol.
For TGGGGCACGTGGTTTC, the “relative binding free energy” value was -0.06 kcal/mol.
ATTTGCACGTGAGAGA was tested, and the “relative binding free energy” value was 0.2 kcal/mol.
In the case of TTACACACGTGATTTG, the “relative binding free energy” value is reported as 0.21 kcal/mol.
With GCGTACACGTGGGGTA the “relative binding free energy” value was -0.09 kcal/mol.
With GGGCACACGTGGGAGA the “relative binding free energy” value was 0.05 kcal/mol.
With TGTGTCACGTGAAGTA the “relative binding free energy” value was 0.32 kcal/mol.
In the case of AGTTTCACGTGAGGGT, the “relative binding free energy” value is reported as 0.41 kcal/mol.
With TTGGGCACGTGGCTTG the “relative binding free energy” value was -0.15 kcal/mol.
AATGTCACGTGTTGGT was tested, and the “relative binding free energy” value was 0 kcal/mol.
With TGGATCACGTGTGGTC the “relative binding free energy” value was 0.19 kcal/mol.
AGAAGCACGTGCGTTG was tested, and the “relative binding free energy” value was -0.14 kcal/mol.
With TATTGCACGTGACATG the “relative binding free energy” value was 0.06 kcal/mol.
CGTGGCACGTGTAATT was tested, and the “relative binding free energy” value was -0.02 kcal/mol.
GGGCTCACGTGGAAGT was tested, and the “relative binding free energy” value was 0.33 kcal/mol.
In the case of CACGGCACGTGTGGTG, the “relative binding free energy” value is reported as 0.09 kcal/mol.
TCTCTCACGTGTTGGG was tested, and the “relative binding free energy” value was 0.04 kcal/mol.
For TAGGACACGTGTGTTC, the “relative binding free energy” value was 0.12 kcal/mol.
In the case of TTGATCACGTGGGTAT, the “relative binding free energy” value is reported as -0.09 kcal/mol.
GTGGCCACGTGGGGCC was tested, and the “relative binding free energy” value was -0.21 kcal/mol.
In the case of CGCGTCACGTGGGGGA, the “relative binding free energy” value is reported as -0.15 kcal/mol.
For GTAATCACGTGCGGAT, the “relative binding free energy” value was 0.27 kcal/mol.
TTATGCACGTGGTACA was tested, and the “relative binding free energy” value was -0.2 kcal/mol.
GTGCTCACGTGGCGGT was tested, and the “relative binding free energy” value was 0.15 kcal/mol.
For TTTATCACGTGTATTA, the “relative binding free energy” value was 0.14 kcal/mol.
AGGTTCACGTGGATAT was tested, and the “relative binding free energy” value was 0.3 kcal/mol.
For TATGTCACGTGGGCAG, the “relative binding free energy” value was -0.05 kcal/mol.
For TATATCACGTGCGGTT, the “relative binding free energy” value was 0.07 kcal/mol.
With AGGAGCACGTGGGAGC the “relative binding free energy” value was -0.16 kcal/mol.
For ATTAACACGTGTGGCT, the “relative binding free energy” value was 0.08 kcal/mol.
For GGATTCACGTGTAGTC, the “relative binding free energy” value was 0.36 kcal/mol.
With TGCATCACGTGGAGGT the “relative binding free energy” value was 0.1 kcal/mol.
In the case of ATGTTCACGTGAGAAG, the “relative binding free energy” value is reported as 0.35 kcal/mol.
With ATTCACACGTGGTTGA the “relative binding free energy” value was 0.14 kcal/mol.
TAGTACACGTGTTGTT was tested, and the “relative binding free energy” value was -0.02 kcal/mol.
With TGCTGCACGTGCTGTT the “relative binding free energy” value was -0.11 kcal/mol.
For CTTGTCACGTGAGTGA, the “relative binding free energy” value was 0.24 kcal/mol.
For TTTGGCACGTGTCATG, the “relative binding free energy” value was 0.04 kcal/mol.
ATTAACACGTGGCGGT was tested, and the “relative binding free energy” value was -0.03 kcal/mol.
For TTTGACACGTGTTAGG, the “relative binding free energy” value was 0.08 kcal/mol.
For CTATGCACGTGGTATA, the “relative binding free energy” value was -0.11 kcal/mol.
ATGGGCACGTGATGTC was tested, and the “relative binding free energy” value was 0.01 kcal/mol.
For GTTTTCACGTGTAGAT, the “relative binding free energy” value was 0.39 kcal/mol.
In the case of GGGTGCACGTGTTGAA, the “relative binding free energy” value is reported as 0.02 kcal/mol.
In the case of TGTAACACGTGGGCTT, the “relative binding free energy” value is reported as -0.2 kcal/mol.
